Measurements: publication PMC8904574
These are yes or no findings as the source states them, for the method shown. For some assays here: Binding seen in cells or lysates may run through a third protein. Some results given as binding are weak or reduced against the parent protein; the word gives no strength. For some assays here: Tags and fused reporters may be left off the sequences shown. Each block holds one substance with its values, some of them ahead of it.

Protein sequences, listed by entry. Tags and fused reporters are not part of them. Lines headed by an entry give the natural chain unless they say otherwise; changes in a name come on top.
UniProt P50002: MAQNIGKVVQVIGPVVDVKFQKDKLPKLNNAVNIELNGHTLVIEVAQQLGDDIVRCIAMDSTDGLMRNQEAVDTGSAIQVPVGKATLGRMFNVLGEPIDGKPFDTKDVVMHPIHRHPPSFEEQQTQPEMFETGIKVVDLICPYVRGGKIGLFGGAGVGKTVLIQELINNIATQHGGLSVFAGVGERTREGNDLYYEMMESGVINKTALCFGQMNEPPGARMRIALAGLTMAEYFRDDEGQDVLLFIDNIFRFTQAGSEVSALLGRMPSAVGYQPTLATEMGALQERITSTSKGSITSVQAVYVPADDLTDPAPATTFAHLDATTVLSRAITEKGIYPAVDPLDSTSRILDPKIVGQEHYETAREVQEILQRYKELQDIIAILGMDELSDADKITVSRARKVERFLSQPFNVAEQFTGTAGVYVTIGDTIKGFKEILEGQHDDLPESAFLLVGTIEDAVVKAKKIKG
UniProt P50000: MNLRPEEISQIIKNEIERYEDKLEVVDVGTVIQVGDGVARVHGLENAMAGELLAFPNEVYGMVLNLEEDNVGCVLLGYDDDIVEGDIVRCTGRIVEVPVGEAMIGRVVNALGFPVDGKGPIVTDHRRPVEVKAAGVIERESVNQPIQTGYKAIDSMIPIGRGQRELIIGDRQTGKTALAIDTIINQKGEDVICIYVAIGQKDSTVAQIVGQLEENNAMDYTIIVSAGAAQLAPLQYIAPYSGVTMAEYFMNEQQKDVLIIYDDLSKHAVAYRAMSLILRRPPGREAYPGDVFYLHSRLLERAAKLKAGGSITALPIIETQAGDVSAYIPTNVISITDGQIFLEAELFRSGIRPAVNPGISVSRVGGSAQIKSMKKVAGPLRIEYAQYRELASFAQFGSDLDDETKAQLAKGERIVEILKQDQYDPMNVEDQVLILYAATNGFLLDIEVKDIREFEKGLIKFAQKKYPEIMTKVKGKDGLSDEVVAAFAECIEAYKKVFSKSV

Columns and labels:
[1] = molecular target: T1, central stalk γε complex of the A. woodii F1 ATP synthase (atpG and atpC expressed bicistronically, His6 tag on ε) (Acetobacterium woodii) (UniProt P50005+P50009); assay: native MS; LILBID-MS; purified subunits incubated in 50 mM KPi, 200 mM NaCl, 2 mM ATP, 2 mM MgCl2, 10% glycerol, pH 7.4, 4 °C, 1 h; exchanged into 100 mM ammonium acetate, 2 mM ATP, 2 mM MgCl2, pH 7.4; both purified
T1 sequence 1: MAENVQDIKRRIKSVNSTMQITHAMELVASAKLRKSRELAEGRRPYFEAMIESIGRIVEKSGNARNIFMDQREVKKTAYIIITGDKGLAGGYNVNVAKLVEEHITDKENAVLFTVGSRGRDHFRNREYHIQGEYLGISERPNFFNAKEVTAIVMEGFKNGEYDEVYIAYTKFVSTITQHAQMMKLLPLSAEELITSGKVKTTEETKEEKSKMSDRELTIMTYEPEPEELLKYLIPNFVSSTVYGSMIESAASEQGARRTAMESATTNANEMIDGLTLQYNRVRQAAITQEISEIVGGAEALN
T1 sequence 2: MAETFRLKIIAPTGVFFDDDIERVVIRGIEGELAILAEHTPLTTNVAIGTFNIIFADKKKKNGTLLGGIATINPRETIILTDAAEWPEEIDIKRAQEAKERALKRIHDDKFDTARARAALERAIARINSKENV

[2] = molecular target: β-subunit of the F1 part of the Na+-F1FO-ATP synthase of Acetobacterium woodii, N-terminal His6 tag (Acetobacterium woodii) (UniProt P50002); assay: as above
[3] = molecular target: T2, γ-subunit of the A. woodii F1 ATP synthase (untagged, only obtained co-expressed with other subunits) (Acetobacterium woodii) (UniProt P50005); assay: as above
T2 sequence: T1 sequence 1

[4] = molecular target: β-subunit of the F1 part of the Na+-F1FO-ATP synthase of Acetobacterium woodii, N-terminal His6 tag (Acetobacterium woodii) (UniProt P50002); assay: pull-down + native MS; subunits co-expressed in E. coli, complex co-purified by affinity chromatography (Ni-NTA) and SEC, analysed by LILBID-MS and SDS-PAGE
[5] = molecular target: β-subunit of the F1 part of the Na+-F1FO-ATP synthase of Acetobacterium woodii, N-terminal His6 tag (Acetobacterium woodii) (UniProt P50002); assay: native MS; nESI ion mobility MS with collision-induced unfolding of the αβ heterodimer co-expressed in and purified from E. coli, in the presence of ATP and Mg2+; precursor selected at m/z 4950
[6] = molecular target: in cellula αβ complex purified from E. coli (Acetobacterium woodii) (UniProt P50000+P50002); assay: native MS; LILBID-MS; purified subunits incubated in 50 mM KPi, 200 mM NaCl, 2 mM ATP, 2 mM MgCl2, 10% glycerol, pH 7.4, 4 °C, 1 h; exchanged into 100 mM ammonium acetate, 2 mM ATP, 2 mM MgCl2, pH 7.4; both purified
[7] = molecular target: in vitro assembled αβ heterodimer (StrepI-α with His6-β, in ATP/Mg2+ or other nucleotide/Mg2+) (Acetobacterium woodii) (UniProt P50000+P50002); assay: as above
[8] = molecular target: β-subunit of the F1 part of the Na+-F1FO-ATP synthase of Acetobacterium woodii, N-terminal His6 tag (Acetobacterium woodii) (UniProt P50002); assay: SEC; HPLC on a bioZen 1.8 µm SEC-3 column, 60 µg protein, elution buffer A (50 mM KPi, 200 mM NaCl, pH 7.4) without ATP/Mg2+, 4 °C; both purified
[9] = molecular target: T1, central stalk γε complex of the A. woodii F1 ATP synthase (atpG and atpC expressed bicistronically, His6 tag on ε) (Acetobacterium woodii); assay: native MS; LILBID-MS; purified subunits or purified complexes incubated without ATP/Mg2+ (ammonium acetate buffer without additives); both purified
[10] = molecular target: α-subunit of the F1 part of the Na+-F1FO-ATP synthase of Acetobacterium woodii, N-terminal StrepI tag (Acetobacterium woodii) (UniProt P50000); assay: native MS; LILBID-MS; purified subunits incubated in 50 mM KPi, 200 mM NaCl, 2 mM ATP, 2 mM MgCl2, 10% glycerol, pH 7.4, 4 °C, 1 h; exchanged into 100 mM ammonium acetate, 2 mM ATP, 2 mM MgCl2, pH 7.4; both purified
[11] = molecular target: β-subunit of the F1 part of the Na+-F1FO-ATP synthase of Acetobacterium woodii, N-terminal His6 tag (Acetobacterium woodii) (UniProt P50002); assay: condition: only without ATP/Mg^2+ (ammonium acetate buffer without any additives); native MS; LILBID-MS; purified subunits or purified complexes incubated without ATP/Mg2+ (ammonium acetate buffer without additives); both purified

- binding [1]: no binding
Substance: α[WT] with β[R251Q] (the two subunits incubated together in ATP/Mg2+) (from UniProt P50000 1-502; P50002 1-466) (complex)

- binding [1]: binds weakly
- binding [2]: no binding
- binding [3]: binds weakly
Substance: β-subunit of the F1 part of the Na+-F1FO-ATP synthase of Acetobacterium woodii, N-terminal His6 tag (from UniProt P50002 1-466)

- binding [4]: binds
- binding [5]: binds
Substance: α-subunit of the A. woodii F1 ATP synthase as co-expressed in the in cellula complexes (no tag of its own) (from UniProt P50000 1-502)

- binding [1]: no binding
Substance: α[WT] with β[K159Q] (the two subunits incubated together in ATP/Mg2+) (from UniProt P50000 1-502; P50002 1-466) (complex)

- binding [6]: no binding
Substance: in cellula αβ complex purified from E. coli (from UniProt P50000 1-502; P50002 1-466)

- binding [7]: no binding
Substance: in vitro assembled αβ heterodimer (StrepI-α with His6-β, in ATP/Mg2+ or other nucleotide/Mg2+) (from UniProt P50000 1-502; P50002 1-466) (complex)

- binding [1]: no binding
Substance: α[WT] with β[R186Q] (the two subunits incubated together in ATP/Mg2+) (from UniProt P50000 1-502; P50002 1-466) (complex)

- binding [1]: no binding
Substance: α[WT] with β[K159Q, R186Q, R251Q] (the two subunits incubated together in ATP/Mg2+) (from UniProt P50000 1-502; P50002 1-466) (complex)

- binding [1]: binds weakly
- binding [10]: no binding
- binding [3]: binds weakly
- binding [11]: no binding
Substance: α-subunit of the F1 part of the Na+-F1FO-ATP synthase of Acetobacterium woodii, N-terminal StrepI tag (from UniProt P50000 1-502)
- binding [8]: no binding (condition: without ATP/Mg^2+)
- binding [9]: no binding (condition: without ATP/Mg^2+)
